# The RNAGym collection of RNA variant scans (doi:10.1093/nar/gkz1192)
# Read counts are not given, so values of variants with three or more changes are uncertain.
# B1: CPEB3 Ribozyme (parent)
# chain: UAACAGGGGGCCACAGCAGAAGCGUUCACGUCGCAGCCCCUGUCAGAUUCUGGUGAAUCUGCGAAUUCUGCUGUAUAUCUC
# Variants of: B1
# Assay: self-cleavage, relative activity (ratio to wild type); higher = more cleavage; in vitro, sequencing
# Method in brief: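 Relative activity was defined as the cleaved/total read fraction for a variant divided by the same fraction for the unmutated ribozyme. CPEB3 self-cleaving ribozyme libraries were made by rounds of error-prone PCR, barcoded, and transcribed in vitro with T7 RNA polymerase for 5 hours at 37°C, and cleavage ran through transcription plus a 15 min DNase I step before EDTA. Illumina sequencing of template-switched reverse transcripts gave the reads, and DNA sequencing mapped the barcodes. Averages come from three batches, using variants with at least 5 reads.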
row,Variant,self-cleavage
1,A56U A57C U67C,0.23
2,A56U A57G G61U A64G U67C,0.12
3,A56U A64G A77G U80C,0.54
4,A56U A64U C68A,0.37
5,A56U A64U C71U A75G,0.14
6,A56U A65G U69A,0.34
7,A56U C59A U69C U80C,0.17
8,A56U C59U U72C A77U,0.26
9,A56U C62U A64G,0.18
10,A56U C62U A64U U74G,0.17
11,A56U U58A U72C A75G,0.16
12,A56U U58C G73A,0.46
13,A56U U58C U69C,0.16
14,A56U U60A C62G U78A,0.12
15,A56U U60A U69A,0.4
16,A56U U66C U72C,0.16
17,A56U U67A U80C,0.31
18,A56U U67G U74C,0.3
19,A56U U69C A77G,0.42
20,A56U U69C U78C U80A,0.41
21,A56U U72C A75G,0.85
22,A56U U72C U78C,0.89
23,A56U U76A A77G,0.76
24,A56U U76A U80C,0.94

row,Variant,self-cleavage
1,A57C A65G A75U U76A U80C,0.11
2,A57C U60A G61A U72C,0.16
3,A57G A64G A75G,0.48
4,A57G A64G U67C,0.31
5,A57G A64G U67C U72A U78A,0.29
6,A57G A64G U69C,0.42
7,A57G A65G U67C,0.19
8,A57G A65G U78C,0.45
9,A57G A65U U67C U74C U80A,0.25
10,A57G A65U U72C,0.27
11,A57G A77C U78C,0.86
12,A57G C59U U69C,0.57
13,A57G C62U A75U A77G,0.14
14,A57G G61A U69G,0.42
15,A57G G70U U74C,0.2
16,A57G U58C A77U,0.32
17,A57G U58C U60A A65C U67C,0.16
18,A57G U58C U72C,0.47
19,A57G U58G A64G U76C A77G,0.11
20,A57G U60C U80A,0.8
21,A57G U60C U80C,0.58
22,A57G U66C G73U,0.43
23,A57G U67A U72C,0.49
24,A57G U67C A77G,0.27

row,Variant,self-cleavage
1,A57G U67C U69A,0.37
2,A57G U67C U72G,0.51
3,A57G U67C U78C,0.19
4,A57G U69C U74A,0.63
5,A57G U72G G73A,1.17
6,A57G U72G G73C,1.16
7,A57G U72G U76A,1.06
8,A57G U74C U76C,1.22
9,A57G U76C A77G,0.86
10,A57U G63A U66A,0.3
11,A57U U58G U69C,0.16
12,A57U U58G U69C U80C,0.14
13,A57U U60A U80A,0.28
14,A57U U66C A75U A77G,0.36
15,A57U U67A U69C,0.16
16,A57U U69A U78C,0.17
17,A57U U72A U76A,0.42
18,A57U U72C U80C,1.02
19,U58A C62A A64U U74A U80C,0.21
20,U58A U60A G63C,0.16
21,U58A U66C U72C U74A,0.18
22,U58A U67A U69C U72A,0.14
23,U58A U69C U80C,0.35
24,U58A U76A A77G,0.43

row,Variant,self-cleavage
1,U58A U80C C81U,0.5
2,U58C A64G C81U,0.42
3,U58C A64G U69G,0.28
4,U58C A64G U72C,0.45
5,U58C A65G U67A,0.21
6,U58C A77G U80A,0.74
7,U58C C59U U69A,0.17
8,U58C C68A U69C U80A,0.21
9,U58C C71A U72G U74C A75U,0.33
10,U58C G63U U72C,0.36
11,U58C U60C A65G,0.21
12,U58C U60C A75G,0.12
13,U58C U60C U67C,0.22
14,U58C U60G U67C C79A,0.35
15,U58C U66C U74C,0.34
16,U58C U67A U69A G70A,0.2
17,U58C U67A U69C,0.18
18,U58C U72A U80G,0.27
19,U58C U72C U74A C79A,0.76
20,U58C U74A U78C,0.53
21,U58C U74C U78C,0.56
22,U58C U78C U80C,0.76
23,U58G A64U A75G,0.08
24,C59A A64U U74C,0.16

row,Variant,self-cleavage
1,C59A U60A U80A,0.23
2,C59A U60C U72A C81G,0.26
3,C59A U67C U69C,0.11
4,C59A U69C U78A,0.23
5,C59A U69C U78C U80C,0.42
6,C59A U76A U80C,0.25
7,C59U A64G U74A,1.18
8,C59U U69A U80A,0.7
9,C59U U78C C79A,1.17
10,U60A A64G U78A,0.51
11,U60A A65G U66C,0.31
12,U60A A65G U76C A77U,0.42
13,U60A C62G U69C,0.25
14,U60A G63A U78C,0.61
15,U60A G73C U78C,1.08
16,U60A U66A U72A,0.43
17,U60A U66A U74A,0.35
18,U60A U67C U72G,0.31
19,U60A U67C U80C,0.36
20,U60A U69A C81A,0.39
21,U60A U69C G70A C71U U72C,0.32
22,U60A U69C U74C,0.38
23,U60A U69C U78A,0.3
24,U60A U72C A75G,0.45

row,Variant,self-cleavage
1,U60A U72C U80C,0.76
2,U60A U74C A75U,0.92
3,U60C A64G A75U U78C,0.21
4,U60C A64G A77U,0.34
5,U60C A64G U67C,0.38
6,U60C A64G U69A,0.66
7,U60C A64G U69A U80C,0.27
8,U60C A64G U69C U74C,0.38
9,U60C A64G U72A U74C,0.28
10,U60C A64G U78C,0.33
11,U60C A64U U78C,0.16
12,U60C A65G U74A,0.34
13,U60C A77G U80A,0.71
14,U60C C62U U69A U80C,0.36
15,U60C C62U U72C,0.34
16,U60C C79A U80C,0.85
17,U60C U66C A77C U78C,0.41
18,U60C U67A U74C,0.36
19,U60C U69A U74C,0
20,U60C U69A U80C,0.27
21,U60C U69C U72A,0.41
22,U60C U69C U80A,0.45
23,U60C U69C U80C,0.49
24,U60C U72C U78C,0.69

row,Variant,self-cleavage
1,U60C U74A U80A,0.93
2,U60C U76C U80C,0.87
3,U60C U78C U80A,0.93
4,U60G C62U U76C,0.79
5,G61A A65G U76C,0.29
6,G61C C62A U80C,0.24
7,G61C G63A A75G,0.39
8,C62G A65G U72C,0.39
9,C62G U69G U78C,0.24
10,C62U A64G U76C,0.19
11,C62U G63A U72A,0.27
12,C62U U67C U72C,0.36
13,C62U U72C U78C,0.23
14,G63A A64C U67C U72A,0.22
15,G63A A65U U80C,0.96
16,G63A U69C U80A,0.55
17,G63A U72A U76A,0.53
18,G63A U72G U78C,1.07
19,G63C U66C U67A,0.21
20,G63U A64G A75U,1.07
21,G63U U66A G73A,0.84
22,G63U U72C A77G,1.23
23,A64C U66C U67C,0.23
